Here are results for 23 molecules from PubChem BioAssay AID2202238 (Ras Initiative Chemistry Research Team, Frederick National …, 2025).

This is one part of the list. The main result of the screen is listed elsewhere. These columns were measured beside it and carry no call.

The target in the test is GTPase KRas (Homo sapiens) (UniProt P01116). In words: Covalent labelling of cysteine mutants by fragments, read by mass spectrometry (AID 2202238). Also on record: protein at 5 µM with 500 µM competing thiol for 1.5 h. The settings on record: KRAS G12D cysteine mutants, disulfide tethering, MALDI-TOF labeling, stronger effect = higher value, fragment at 500 µM.
Setting [1] is: measured here: G60C mutant labeling.
Setting [2] is: measured here: G75C mutant labeling.
Setting [3] is: measured here: H94C mutant labeling.
Where [4] appears, read: measured here: I36C mutant labeling.
Where [5] appears, read: measured here: L120C mutant labeling.
The mark [6] stands for this setting: measured here: M67C mutant labeling.
The mark [7] stands for this setting: measured here: M72C mutant labeling.
The mark [8] stands for this setting: measured here: N26C mutant labeling.
Where [9] appears, read: measured here: N86C mutant labeling.
[10] abbreviates: measured here: P121C mutant labeling.
The mark [11] stands for this setting: measured here: S122C mutant labeling.
Setting [12] is: measured here: S136C mutant labeling.

Chain of UniProt P01116 (P01116 whole entry, looked up, the tested form may be a part): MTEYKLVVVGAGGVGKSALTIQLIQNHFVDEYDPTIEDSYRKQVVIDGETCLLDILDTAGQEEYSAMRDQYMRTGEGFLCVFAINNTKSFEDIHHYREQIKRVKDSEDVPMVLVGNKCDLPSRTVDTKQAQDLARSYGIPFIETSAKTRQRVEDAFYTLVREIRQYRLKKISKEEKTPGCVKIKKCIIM

As to `O=C(NCCS)c1cccnc1OCC(F)(F)F`, the percent labeling was 48.2% under setting [1]; 24.5% under setting [2]; 39.1% under setting [3]; 19.3% under setting [4]; 32.7% under setting [5]; 26.3% under setting [6]. Further, the percent labeling came to 34% under setting [7]; 34.1% under setting [8]; 23.3% under setting [9]; 22.8% under setting [10]; 26.3% under setting [11]; 33.5% under setting [12].

As to `O=C(NCCS)c1cncc(N2CCCC2=O)c1`, the percent labeling runs as follows: under setting [1], 22.2%; under setting [2], 12.5%; under setting [3], 30%; under setting [4], 23.7%; under setting [5], 36.7%; under setting [6], 32.9%. Besides, the percent labeling by setting is: under setting [7], 26.3%; under setting [8], 41.2%; under setting [9], 21.8%; under setting [10], 25.6%; under setting [11], 30.4%; under setting [12], 47.1%.

The molecule `O=C(CCS)NCCOc1ncc(C(F)(F)F)cc1Cl` displayed a percent labeling under setting [2] of 8.7%; a percent labeling under setting [3] of 36.5%; a percent labeling under setting [4] of 27.4%; a percent labeling under setting [5] of 20.2%; a percent labeling under setting [6] of 29.1%; a percent labeling under setting [7] of 20%. This molecule also gave a percent labeling under setting [9] of 18.3%, a percent labeling under setting [10] of 20.5%, a percent labeling under setting [11] of 17.5% and a percent labeling under setting [12] of 38.6%.

Take `COC1(c2nc(Cc3ccccc3)no2)CCN(C(=O)CCS)CC1`: the percent labeling turned out to be 12.7% under setting [2]; 19.1% under setting [3]; 26.4% under setting [4]; 15.8% under setting [5]; 31.3% under setting [6]; 18.4% under setting [7]. For the same molecule, the percent labeling was 18% under setting [9], 16.3% under setting [10], 16.3% under setting [11] and 33.5% under setting [12].

For the molecule `O=C(NCCS)C1CC12CCCc1ccccc12` (stereo unspecified), the percent labeling amounted to 27.1% under setting [1]; 11.3% under setting [2]; 9.6% under setting [3]; 9.6% under setting [4]; 12.9% under setting [5]; 16.8% under setting [6]. In addition, the percent labeling is, setting by setting: under setting [7], 26.8%; under setting [8], 26.3%; under setting [9], 3.6%; under setting [10], 19.7%; under setting [11], 8.9%; under setting [12], 25%.

As for `Cc1nc(C(C)(C)C)[nH]c(=O)c1C(=O)NCCS`, the percent labeling is 17.6% under setting [1]; 8.7% under setting [2]; 25.5% under setting [3]; 18.5% under setting [4]; 37.2% under setting [5]; 19.7% under setting [6]. The percent labeling is, setting by setting: under setting [7], 13.8%; under setting [8], 29.7%; under setting [9], 20.9%; under setting [10], 28.7%; under setting [11], 24.7%; under setting [12], 39.4%.

In turn, `CCc1csc(-n2cc(C(=O)NCCS)cn2)n1` gave a percent labeling under setting [1] of 26.8%; a percent labeling under setting [2] of 14.1%; a percent labeling under setting [3] of 19.2%; a percent labeling under setting [4] of 15.8%; a percent labeling under setting [5] of 25.3%; a percent labeling under setting [6] of 14.3%. Besides, the percent labeling by setting is: under setting [7], 44.9%; under setting [8], 39.4%; under setting [9], 14.6%; under setting [10], 18.1%; under setting [11], 16.2%; under setting [12], 35%.

For `Cc1ccc(N(Cc2cnn(C)c2)C(=O)CCS)cc1`, the percent labeling was determined as 22% under setting [2]; 54.4% under setting [3]; 33.3% under setting [4]; 31.6% under setting [5]; 40.8% under setting [6]; 34.6% under setting [7]. The molecule further displayed a percent labeling under setting [9] of 31.8%, a percent labeling under setting [10] of 34.8%, a percent labeling under setting [11] of 34.1% and a percent labeling under setting [12] of 62.5%.

In the case of `O=C(NCCS)c1nn(-c2cccc(Br)c2)c2c1CCCC2`, the percent labeling was determined as 36.4% under setting [1]; 16.4% under setting [2]; 17.7% under setting [3]; 14.5% under setting [4]; 19.2% under setting [5]; 6.2% under setting [6]. Further, the percent labeling is, setting by setting: under setting [7], 67.3%; under setting [8], 16.4%; under setting [9], 8.4%; under setting [10], 13.1%; under setting [11], 3.8%; under setting [12], 34.6%.

On to `Cc1[nH]c2ccccc2c1-c1csc(NC(=O)CCS)n1`, for which the percent labeling by setting is: under setting [2], 15.4%; under setting [3], 21%; under setting [4], 23.4%; under setting [5], 16.8%; under setting [6], 25.4%; under setting [7], 48%. In addition, the percent labeling was 17.4% under setting [9], 16.9% under setting [10], 7.2% under setting [11] and 50.1% under setting [12].

Consider `O=C(NCCS)C12CCC(C(F)(F)F)(CC1)CC2`, for which the percent labeling by setting is: under setting [1], 58.4%; under setting [2], 16.9%; under setting [3], 28.3%; under setting [4], 23.7%; under setting [5], 28.3%; under setting [6], 20%. For the same molecule, the percent labeling by setting is: under setting [7], 21.6%; under setting [8], 36.4%; under setting [9], 21.6%; under setting [10], 22.8%; under setting [11], 20.9%; under setting [12], 30%.

Take `O=C1COc2cc(F)c(C(=O)NCCS)cc2N1`: the percent labeling is, setting by setting: under setting [1], 15.8%; under setting [2], 10.1%; under setting [3], 19.9%; under setting [4], 11%; under setting [5], 16%; under setting [6], 11.8%. Also, the percent labeling by setting is: under setting [7], 35.5%; under setting [8], 27.3%; under setting [9], 16.4%; under setting [10], 11.3%; under setting [11], 9.2%; under setting [12], 18.8%.

Take `O=C(CN(Cc1ccco1)c1cccc(Cl)c1)NCCS`: the percent labeling turned out to be 37% under setting [1]; 10.3% under setting [2]; 13.4% under setting [3]; 9.7% under setting [4]; 9.8% under setting [5]; 9.1% under setting [6]. In addition, the percent labeling runs as follows: under setting [7], 22.1%; under setting [8], 20%; under setting [9], 8.1%; under setting [10], 14.5%; under setting [11], 6.9%; under setting [12], 16.7%.

As for `Cn1c(C(=O)NCCS)cc2ccccc2c1=O`, the percent labeling stood at 40.5% under setting [1]; 17.3% under setting [2]; 29.6% under setting [3]; 22.7% under setting [4]; 26.3% under setting [5]; 32.4% under setting [6]. Further, the percent labeling reads like this: under setting [7], 34.2%; under setting [8], 44.2%; under setting [9], 22.8%; under setting [10], 53.5%; under setting [11], 12.6%; under setting [12], 51.2%.

In the case of `O=C(CCS)Nc1cnc(Oc2ccccc2)nc1`, the percent labeling amounted to 12.5% under setting [2]; 29.5% under setting [3]; 27.3% under setting [4]; 22.1% under setting [5]; 68.6% under setting [6]; 39.3% under setting [7]. Also, the percent labeling reads like this: under setting [9], 16.6%; under setting [10], 21.7%; under setting [11], 25%; under setting [12], 48.7%.

For the molecule `O=C(Cc1c[nH]c2ccccc12)NC1(C(=O)NCCS)CCCC1`, the percent labeling came out at 19.1% under setting [1]; 0% under setting [2]; 8.1% under setting [3]; 4.7% under setting [4]; 8.1% under setting [5]; 15.6% under setting [6]. Also, the percent labeling worked out at 5.1% under setting [7]; 10.4% under setting [8]; 4.5% under setting [9]; 4.4% under setting [10]; 4% under setting [11]; 10.2% under setting [12].

As to `O=C(CCS)NCc1cc(-c2ccco2)on1`, the percent labeling reads like this: under setting [2], 11.7%; under setting [3], 22.2%; under setting [4], 35.8%; under setting [5], 23.9%; under setting [6], 28.6%; under setting [7], 28.2%. Besides, the percent labeling is 30.7% under setting [9], 26.9% under setting [10], 25.9% under setting [11] and 42.2% under setting [12].

On to `O=C(NCCS)[C@H]1CCO[C@@H]1c1cccnc1`, for which the percent labeling was 21.2% under setting [1]; 9.1% under setting [2]; 21.5% under setting [3]; 28% under setting [4]; 18.6% under setting [5]; 23.6% under setting [6]. The molecule also came in with a percent labeling under setting [7] of 10.8%; a percent labeling under setting [8] of 29.4%; a percent labeling under setting [9] of 9.3%; a percent labeling under setting [10] of 22.4%; a percent labeling under setting [11] of 25.2%; a percent labeling under setting [12] of 39.3%.

For the molecule `CC(NC(=O)CCS)C(O)c1cccc(F)c1` (stereo unspecified), the percent labeling was 11.3% under setting [2]; 34.2% under setting [3]; 31% under setting [4]; 31.1% under setting [5]; 31.4% under setting [6]; 28.2% under setting [7]. For the same molecule, the percent labeling runs as follows: under setting [9], 17.3%; under setting [10], 39.9%; under setting [11], 33.6%; under setting [12], 50.4%.

`CC1CN(Cc2ccccc2)CC1C(=O)NCCS` (stereo unspecified): the percent labeling under setting [1] was 52%; the percent labeling under setting [2] was found to be 59.9%; the percent labeling under setting [3] was determined as 44.4%; the percent labeling under setting [4] came out at 46.6%; the percent labeling under setting [5] is 39.6%; the percent labeling under setting [6] was found to be 65.1%. The molecule also registered a percent labeling under setting [7] of 37.1%; a percent labeling under setting [8] of 48.4%; a percent labeling under setting [9] of 37.7%; a percent labeling under setting [10] of 35.1%; a percent labeling under setting [11] of 35.2%; a percent labeling under setting [12] of 63.1%.

As to `CCn1cc(Cn2cc(Cl)c(NC(=O)CCS)n2)cn1`, the percent labeling stood at 16.6% under setting [2]; 42.6% under setting [3]; 44.1% under setting [4]; 41.6% under setting [5]; 40.6% under setting [6]; 39% under setting [7]. Also, the percent labeling worked out at 56.2% under setting [9], 31.8% under setting [10], 33.3% under setting [11] and 50.8% under setting [12].

In the case of `Cn1nccc1-c1[nH]ncc1CNC(=O)CCS`, the percent labeling reads like this: under setting [2], 10.1%; under setting [3], 28.9%; under setting [4], 39%; under setting [5], 25.8%; under setting [6], 31.4%; under setting [7], 18.4%. Besides, the percent labeling came out at 17.6% under setting [9], 31% under setting [10], 35% under setting [11] and 50% under setting [12].

Take `O=C(CCS)N1CCC(c2cccc(F)c2)CC1`: the percent labeling is, setting by setting: under setting [2], 21.4%; under setting [3], 26.8%; under setting [4], 25.1%; under setting [5], 23.9%; under setting [6], 24.6%; under setting [7], 41.1%. Moreover, the percent labeling runs as follows: under setting [9], 21.8%; under setting [10], 25.6%; under setting [11], 19.4%; under setting [12], 48.2%.
